Measured values: the antibiotic and cytotoxicity screens of Wong et al. (2023)
The list shows a part of the results.

Legend:
HSkMC = human skeletal muscle cells; assay: cytotoxicity call (relative viability < 0.9); details: 10 µM
HepG2 = assay: cytotoxicity call (relative viability < 0.9); details: 10 µM
S. aureus RN4220 = assay: growth inhibition call (relative growth <= 0.2); details: 50 µM

C[C@@H]1CN([C@H](C)CO)S(=O)(=O)c2ccc(C#CC3(O)CCCC3)cc2O[C@@H]1CN(C)C(=O)Cc1cccnc1
inactive: cytotoxicity call (HSkMC) | cytotoxicity call (HepG2) | growth inhibition call (S. aureus RN4220)

CC(=O)N[C@@H](Cc1cccc(F)c1)C(=O)O
inactive: cytotoxicity call (HSkMC) | cytotoxicity call (HepG2) | growth inhibition call (S. aureus RN4220)

C[C@@H]1CN([C@@H](C)CO)C(=O)c2cc(NC(=O)Nc3ccc4c(c3)OCO4)ccc2O[C@@H](C)CCCCO[C@@H]1CN(C)Cc1ccc(C(F)(F)F)cc1
inactive: cytotoxicity call (HSkMC) | cytotoxicity call (HepG2) | growth inhibition call (S. aureus RN4220)

COc1cccc(NC(=O)N(C)C[C@H]2Oc3cc(C#CC4(O)CCCC4)ccc3S(=O)(=O)N([C@H](C)CO)C[C@@H]2C)c1
inactive: cytotoxicity call (HSkMC) | cytotoxicity call (HepG2) | growth inhibition call (S. aureus RN4220)

CC(C)NC(=O)N(C)C[C@H]1Oc2cc(C#Cc3ccccn3)ccc2S(=O)(=O)N([C@H](C)CO)C[C@H]1C
inactive: cytotoxicity call (HSkMC) | cytotoxicity call (HepG2) | growth inhibition call (S. aureus RN4220)

C[C@@H]1CCCCO[C@@H](CN(C)C(=O)C2CCCCC2)[C@@H](C)CN([C@H](C)CO)C(=O)c2cc(NS(=O)(=O)c3ccc(F)cc3)ccc2O1
inactive: cytotoxicity call (HSkMC) | cytotoxicity call (HepG2) | growth inhibition call (S. aureus RN4220)

C[C@H](CO)N1C[C@H](C)[C@@H](CN(C)S(=O)(=O)c2ccc(F)cc2)Oc2ccc(NC(=O)c3ccncc3)cc2CC1=O
inactive: cytotoxicity call (HSkMC) | cytotoxicity call (HepG2) | growth inhibition call (S. aureus RN4220)

COc1ccc(NC(=O)N(C)C[C@@H]2Oc3c(NC(=O)Nc4cccc5ccccc45)cccc3C(=O)N([C@H](C)CO)C[C@@H]2C)cc1
inactive: cytotoxicity call (HSkMC) | cytotoxicity call (HepG2) | growth inhibition call (S. aureus RN4220)

COc1ccc(NC(=O)Nc2ccc3c(c2)C(=O)N([C@@H](C)CO)C[C@@H](C)[C@@H](CN(C)C(=O)Cc2ccccc2)OCCCC[C@@H](C)O3)cc1
inactive: cytotoxicity call (HSkMC) | cytotoxicity call (HepG2) | growth inhibition call (S. aureus RN4220)

CN(C)c1cc(NC(=O)CNC(C)(C)C)c(O)c2c1C[C@H]1C[C@H]3[C@H](N(C)C)C(=O)C(C(N)=O)=C(O)[C@@]3(O)C(=O)[C@H]1C2=O
inactive: cytotoxicity call (HSkMC) | cytotoxicity call (HepG2) | growth inhibition call (S. aureus RN4220)

Cc1cc(=O)n2ncnc2[nH]1
inactive: cytotoxicity call (HSkMC) | cytotoxicity call (HepG2) | growth inhibition call (S. aureus RN4220)

COc1cccc(S(=O)(=O)Nc2ccc3c(c2)[C@@H]2C[C@@H](CC(=O)NCc4cccc(F)c4)O[C@@H](CO)[C@@H]2O3)c1
inactive: cytotoxicity call (HSkMC) | cytotoxicity call (HepG2) | growth inhibition call (S. aureus RN4220)

COc1cccc(S(=O)(=O)N2C[C@H](O)COC[C@H]3O[C@H](CC(=O)N4CCN(c5ccccc5)CC4)CC[C@@H]32)c1
inactive: cytotoxicity call (HSkMC) | cytotoxicity call (HepG2) | growth inhibition call (S. aureus RN4220)

C[C@H](CO)N1C[C@H](C)[C@@H](CN(C)Cc2ccc(Oc3ccccc3)cc2)Oc2ccc(NC(=O)Cn3cnnn3)cc2CC1=O
inactive: cytotoxicity call (HSkMC) | cytotoxicity call (HepG2) | growth inhibition call (S. aureus RN4220)

C[C@@H]1CN([C@@H](C)CO)C(=O)c2cc(NS(=O)(=O)c3cn(C)cn3)ccc2O[C@@H]1CN(C)Cc1ccc(C(=O)Nc2ccccc2N)cc1
inactive: cytotoxicity call (HSkMC) | cytotoxicity call (HepG2) | growth inhibition call (S. aureus RN4220)

COc1ccccc1NC(=O)N(C)C[C@H]1Oc2ncc(Br)cc2C(=O)N([C@@H](C)CO)C[C@H]1C
inactive: cytotoxicity call (HSkMC) | cytotoxicity call (HepG2) | growth inhibition call (S. aureus RN4220)

C[C@H]1CN([C@@H](C)CO)C(=O)c2ccccc2-c2ccccc2CO[C@H]1CN(C)C(=O)Nc1ccccc1C(F)(F)F
inactive: cytotoxicity call (HSkMC) | cytotoxicity call (HepG2) | growth inhibition call (S. aureus RN4220)

C[C@H]1CN([C@@H](C)CO)C(=O)c2cc(NS(=O)(=O)c3cccs3)ccc2O[C@H]1CN(C)S(=O)(=O)c1cn(C)cn1
inactive: cytotoxicity call (HSkMC) | cytotoxicity call (HepG2) | growth inhibition call (S. aureus RN4220)

CN1Cc2c(CN3CCCC3=O)nn(C)c2C1
inactive: cytotoxicity call (HSkMC) | cytotoxicity call (HepG2) | growth inhibition call (S. aureus RN4220)

CO[C@H]1CN(C)C(=O)c2cc(NC(=O)c3ccccc3)ccc2OC[C@@H](C)N(C(=O)CN(C)C)C[C@H]1C
inactive: cytotoxicity call (HSkMC) | cytotoxicity call (HepG2) | growth inhibition call (S. aureus RN4220)

C[C@@H](O)C#Cc1ccc2c(c1)O[C@@H](CN(C)C(=O)Cc1ccccn1)[C@@H](C)CN([C@@H](C)CO)S2(=O)=O
inactive: cytotoxicity call (HSkMC) | cytotoxicity call (HepG2) | growth inhibition call (S. aureus RN4220)

C[C@H]1CN([C@@H](C)CO)C(=O)c2cc(NC(=O)NC3CCCCC3)ccc2O[C@H]1CN(C)Cc1ccc(C(F)(F)F)cc1
inactive: cytotoxicity call (HSkMC) | cytotoxicity call (HepG2) | growth inhibition call (S. aureus RN4220)

COc1ccc(NC(=O)Nc2ccc3c(c2)C(=O)N([C@H](C)CO)C[C@H](C)[C@@H](CN(C)C(=O)NC2CCCCC2)OCCCC[C@@H](C)O3)cc1
inactive: cytotoxicity call (HSkMC) | cytotoxicity call (HepG2) | growth inhibition call (S. aureus RN4220)

C[C@@H]1CN([C@H](C)CO)C(=O)c2cccc(NS(=O)(=O)c3cccs3)c2O[C@H]1CN(C)S(=O)(=O)c1ccccc1
inactive: cytotoxicity call (HSkMC) | cytotoxicity call (HepG2) | growth inhibition call (S. aureus RN4220)

C[C@H]1CN([C@@H](C)CO)C(=O)c2ccccc2-c2ccccc2CO[C@@H]1CN(C)S(=O)(=O)c1cn(C)cn1
inactive: cytotoxicity call (HSkMC) | cytotoxicity call (HepG2) | growth inhibition call (S. aureus RN4220)

Cc1noc(C)c1NC(=O)N(C)C[C@@H]1OCCCC[C@H](C)Oc2ccc(NS(=O)(=O)c3ccc(F)cc3)cc2C(=O)N([C@H](C)CO)C[C@@H]1C
inactive: cytotoxicity call (HSkMC) | cytotoxicity call (HepG2) | growth inhibition call (S. aureus RN4220)

CC(C)NC(=O)Nc1ccc2c(c1)C(=O)N([C@H](C)CO)C[C@H](C)[C@H](CN(C)Cc1ccc3c(c1)OCO3)O2
inactive: cytotoxicity call (HSkMC) | cytotoxicity call (HepG2) | growth inhibition call (S. aureus RN4220)
